From PubChem BioAssay AID662 (National Center for Advancing Translational Sciences (NCATS), 2007)
Among all 71,000 compounds or so, about 1,800 (2.5%) were called active. The inconclusive results got no clear call from the source; some entries with a clear call stand among them for comparison. The call rests on the fitted dose curve; in most records, active means well fitted activation curve with a large enough effect in the signal ratio, with a control signal flat (not every such curve was filed as active); inconclusive means small, poorly fitted or top-dose-only effect, or effect the other way, or a change in a side signal; inactive means flat fitted curve, though single readings scatter; the % refers to the signal ratio. Potencies of inconclusive entries are doubtful fits and often do not repeat.

Assay: Cell signaling CRE-BLA (Fsk stim); on activity change, negative = inhibition: % of control where 0% means no effect
Settings: CHO CRE-bla reporter (cAMP response element driving beta-lactamase), forskolin EC10, beta-lactamase ratio; activity change, negative = inhibition: at 38.2 µM (top of the series) unless noted
Outline: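 Beta-lactamase reporter under a cAMP responsive element in CHO cells; compounds tested in titration series against EC10 NKH 477, 3 h at 37 °C. Read-out: CCF4 FRET ratio 460nm/530nm (excitation 405nm) giving %Activity, fitted to AC50.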
Potency means the concentration at half of the fitted maximal effect; tags describe the fitted curve by direction and shape.

Structure (SMILES) | activity change, negative = inhibition | Potency
[N-]=[N+]=NCC(=O)c1c[nH]c(=O)[nH]c1=O | inactive: 2.48% [at 7.6 µM] | –
Cc1sc2ccccc2c1CC1=NCCN1 | inactive: 0.142% | –
Cc1cccc(-c2nc3ccccc3c(=O)n2-n2cccc2)c1 | – | inconclusive: 5.01 µM [rising, single point]
COC[C@@H]1OC(=O)c2coc3c2[C@]1(C)C1=C(C3=O)[C@H]2CCC(=O)[C@]2(C)C[C@@H]1OC(C)=O | inactive: -22% | –
CCn1c(C)c(C(=O)O)c2cc(OC)ccc21 | inactive: -18.5% | –
O=C(O)C1=CCCN(CCOC(c2ccc(C(F)(F)F)cc2)c2ccc(C(F)(F)F)cc2)C1 | inconclusive: -14.9% | –
Cc1nc2c(-c3ccccc3)c(C)nn2c(C)c1CCC(=O)N1CCC2(CC1)OCCO2 | inactive: 9.09% | –
O=C(CCl)c1ccc(Cl)cc1Cl | inconclusive: -33.3% | –
CN[C@@H](C)[C@@H](O)c1ccccc1 | inconclusive: -21.4% | –
C[C@@]12CC[C@H]3[C@@H](CCC4=C(O)C(=O)CC[C@]43C)[C@H]1CCC2=O | inactive: -0.679% | –
CCC1(c2ccccc2)C(=O)N(COC)C(=O)N(COC)C1=O | inconclusive: -1.09% [at 7.6 µM] | –
O=C1/C(=C\c2ccccc2)C[C@@]2(O)[C@H]3Cc4ccc(O)c5c4[C@@]2(CCN3CC2CC2)[C@@H]1O5 | – | inconclusive: 12.6 µM [falling, partial curve, poor fit]
CCCCCC[C@H]1C(=O)O[C@@H](C)[C@H](NC(=O)c2cccc(NC=O)c2O)C(=O)O[C@@H](C)[C@@H]1OC(=O)CC(C)C | inconclusive: 19.7% | –
C[C@]12CC[C@H](O)C[C@@H]1CC[C@H]1[C@H]2CC[C@]2(C)C(=O)CC[C@@H]12 | inconclusive: 9.06% [at 17.1 µM] | –
O=C(CN1CCN(Cc2ccc(Cl)cc2)C1=O)N1CCC2(CC1)OCCO2 | inconclusive: 5.48% | –
CCCCCCn1c(O)c(C=NC2CCCCC2N)c(=O)[nH]c1=O (configuration not stated) | inactive: -8.37% | –
CCCNc1oc(-c2cccc3ccccc23)nc1C#N | – | inconclusive: 10 µM [rising, partial curve]
N#CCc1ccccc1 | inactive: -0.97% | –
CC(Oc1ccc(-c2ccccc2)cc1)C(=O)O (configuration not stated) | inconclusive: -15.9% | –
Cc1ccc2c(c1)CC1(CN2C)C(=O)NC(=O)N(c2cc(C)ccc2C)C1=O (configuration not stated) | inconclusive: 24.7% | –
CCn1c(=O)cc(OCC(=O)N2CCN(Cc3ccc4c(c3)OCO4)CC2)c2ccccc21 | – | inconclusive: 10 µM [rising, single point]
CCC(=Nc1ccc(OC)cc1OC)c1c(O)n(C2CCCCC2)c(=O)[nH]c1=O | – | inconclusive: 10 µM [rising, partial curve]
N=C(N)c1c(O)n(C2CCCCC2)c(=O)n(C2CCCCC2)c1=O | – | inconclusive: 10 µM [falling, single point]
O=c1c2ccccc2nc(-c2ccco2)n1-c1nccs1 | – | inconclusive: 10 µM [rising, partial curve]
N#Cc1ccccc1Cn1cc(C(=O)c2ccco2)c2ccccc21 | inactive: 11.4% | –
NC(N)=Nc1ccc2[nH]c3c(c2c1)C[C@]1(O)[C@@H]2Cc4ccc(O)c5c4[C@]1(CCN2CC1CC1)[C@@H]3O5 | inactive: -1.67% | –

Structure (SMILES) | activity change, negative = inhibition | Potency
CCCCCCC(C)(C)c1ccc([C@@H]2C[C@H](O)CC[C@@H]2CCCO)c(O)c1 | – | inconclusive: 31.6 µM [rising, single point]
O=C(Oc1ccccc1)N1CCC2(CCCN(Cc3nccs3)C2)CC1 | inconclusive: 11.7% | –
CC(C)(C)P(=O)(c1ccncc1)N1CCCC1 (configuration not stated) | inactive: 0.0481% | –
O=c1[nH]c(=O)n(Cc2ccco2)c(O)c1C=NC1CC1 | inactive: 13.6% | –
CN1C(=O)C(C2(C#N)CCCCC2)C(=O)N(C)C1=O | inactive: -3.2% | –
CN1CCc2cc3c(cc2[C@@H]1[C@H]1OC(=O)c2c1ccc1c2OCO1)OCO3 | inactive | –
CN1CC[C@@]2(c3cccc(O)c3)Cc3nc4ccccc4cc3C[C@H]2C1 | inconclusive: -23.7% | –
O/N=C/c1c[nH]c2ccccc12 | inconclusive: -28.2% | –
COC(=O)C1C2c3ccccc3OC1(C)N=c1s/c(=C/c3cnn(C)c3C)c(=O)n12 (configuration not stated) | – | inconclusive: 5.01 µM [rising, single point]
Fc1ccc(C(OCCN2CCN(C/C=C\c3ccccc3)CC2)c2ccc(F)cc2)cc1 | – | inconclusive: 31.6 µM [rising, single point]
COc1cc2ccccc2c2cc([N+](=O)[O-])oc12 | – | inconclusive: 3.98 µM [rising, single point]
Oc1cc2c(cc1O)[C@H]1c3ccccc3CN[C@H]1CC2 | inconclusive: -29.3% | –
CC1CCC(C(=O)NC(C(=O)N2CCC3(CC2)OCCO3)C(C)C)CC1 (configuration not stated) | inconclusive: 9.4% | –
COc1cc2[nH]c(=O)n(-c3ccccc3)c(=O)c2cc1OC | – | inconclusive: 6.31 µM [rising, partial curve]
O=C(NCC(c1cccnc1)N1CCN(c2ccccc2)CC1)Oc1ccccc1 (configuration not stated) | – | inconclusive: 12.6 µM [falling, partial curve]
O=C(Nc1cccc(F)c1)N1CC2(CCNCC2)C1 | inactive: -6.96% | –
CC1CCCC(C2(O)C(=O)Nc3ccccc32)C1=O (configuration not stated) | inactive: -8.43% | –
CC(C)[C@]12CC(=O)[C@H](C)[C@H]1C2 | inactive: -4.74% | –
Cl/C=C\Cl | inactive: -4.99% | –
CC(C)OC(=O)c1c(N)n(CC2CCCO2)c2nc3ccccc3nc12 (configuration not stated) | – | active: 10 µM
C[C@@H]1[C@@H](C)N1C[C@H](O)Cn1ccnc1[N+](=O)[O-] (some centres not stated) | inactive: -2.5% [at 7.6 µM] | –
Cc1nc2ccccc2cc1C[N+]12CN3CN(CN(C3)C1)C2 | inactive: -5.99% [at 7.6 µM] | –
Cc1sc2ncn(CC(=O)N3CCC4(CC3)OCCO4)c(=O)c2c1C | inconclusive: 15.1% | –
CC(=O)OCC1=C(C(=O)[O-])N2C(=O)[C@@H](NC(=O)CCC[C@@H](N)C(=O)[O-])[C@@H]2SC1.[Zn+2] | inactive: -7.4% | –
O=C(NC(Cc1ccccc1)C(=O)N1CCC2(CC1)OCCO2)C1CCCCC1 (configuration not stated) | inconclusive: 11.1% | –
C[N+]1(C)C2CC[C@H]1CC(OC(=O)[C@@H](CO)c1ccccc1)C2 (some centres not stated) | inconclusive: -4.25% [at 7.6 µM] | –
